Source: the supplement of paper PMC3334620
Whole data set: some 33,000 sequences, median “E-score (-0.5 to 0.5)” near -0.016, cut for the highest 2% near 0.31. Some of the results follow.

target: Cst6 (UniProt P40535); assay: PBM E-score (8-mer binding enrichment) (E-score (-0.5 to 0.5)); higher = stronger / more preferred TF binding; most listed sequences are background and not binding sites; settings: protein concentration: 200 nM; construct: GST-DNA-binding domain
In short: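 Universal all-10-mer Agilent arrays, double-stranded by primer extension on fresh or once-stripped slides, were probed with about 100-200 nM GST-tagged yeast transcription factors made by PURExpress. Fluorescent anti-GST detected bound protein, and masliner normalised the scans. E-scores from the Universal PBM Analysis Suite were given to each ungapped eight-base word pooled with its reverse complement.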

Sequence	PBM E-score
CGACTATC	-0.114
ATAGAAAT	0.206
AGTGATTA	0.203
AATCTGAC	0.15
CCCTCCGA	-0.369
GGCTCTCA	-0.117
CATACTTA	0.108
CAAGTCTA	-0.155
TAGGGCGA	-0.0553
TAATGAGA	0.0949
CCTGGTCC	-0.306
ATGCAGCA	-0.112
CAACGGTG	-0.263
CACCGCGA	-0.0105
ACGTCAAT	0.455
AAAATTTC	0.134
ACGGGGTG	-0.0584
TGAATTAA	0.27
AGATTGGG	0.0554
CCTTCACC	-0.212
AGGAATTC	-0.101
AAAACGCT	0.0338
CAACTATA	0.025
ACCGTCCA	-0.185
CGACGGCC	-0.145

Sequence	PBM E-score
ACGAGCCG	0.127
ACAAGCTA	-0.0918
GATCGCCC	-0.239
ACTAGGTC	-0.0271
CGATTTAC	0.114
AATGTTTA	0.103
ATTACCCA	0.0952
TCTTATCA	0.293
ATTCCATA	0.0886
AAACTCAG	0.0818
CGCCCGAA	-0.287
CCACCATC	-0.28
CCTCAGTC	-0.122
GATGAAAA	0.164
CTTCAACA	0.105
AAATGCTC	-0.0632
CTTCTTAA	0.1
AGGGCGCG	0.00972
AGCAATTC	0.0696
TGGGCTAA	-0.157
AACGGTCG	0.009
CCTCGGCG	0.124
AGGAGCCC	-0.25
AAGTCGAC	-0.031
AAAACACA	0.0725

Sequence	PBM E-score
AAAAAAAG	0.211
GAAAGTTA	0.141
GCCCTAGA	-0.203
CATGAGCG	0.0642
GACCTATC	-0.134
AATAAACT	0.0876
AAGCACGC	0.0996
ATGAGTAG	0.131
CGAGACAG	0.0363
ACGTTGTC	-0.0147
ACCAGGCT	-0.224
GGTTGGAA	-0.101
TGCCCACA	-0.195
GCCCCGTA	-0.094
GGCCACTA	-0.0437
CAACCCAA	0.0111
TCCTACAA	0.0486
AGTCGCAG	-0.192
CGTACAAC	0.0177
ATGCACGC	0.0803
CAAGAAAC	0.121
CGGTGTTA	-0.168
ATGCGGGC	-0.0464
ACATCAGT	0.218
GTCCTGCA	-0.226

Sequence	PBM E-score
ACATTTCG	-0.0133
ATGGTCCG	0.00983
CCCCCCGA	-0.427
AAGAGCGA	-0.17
GAAACTCA	0.15
GCAATCCA	0.0451
GTCATGAC	0.374
ACCAAATG	-0.0331
CGAAACAA	0.16
ACCCTAGT	-0.24
GGGGTGCA	-0.161
CGACTGCG	-0.127
ACCATATA	0.272
CGGATAAG	-0.118
CGTGGCCC	-0.282
AATCTCGA	0.045
TTCAGCAA	0.195
ACAACCGC	0.159
TATCGGCA	0.032
CCCCAATC	-0.17
ACTCGGAA	-0.0503
CGGGAGTA	-0.124
GCAACAGC	-0.0327
GGGCCCAC	-0.291
ACCGCTCA	0.141

Sequence	PBM E-score
ATTTCGAC	0.0504
AATTTGAT	0.131
CGTCGCTC	-0.0591
TAGCGAAA	0.0411
TAGCTACA	0.0398
ACAGCTGT	-0.154
TCGGCCGA	-0.0507
ATCAAAGC	-0.0365
ATGTGATG	0.0899
TCACCGGA	0.223
GGAGAAAC	-0.164
CGCGGCGC	0.372
ACATAGAT	0.0936
CAAGAGAC	-0.257
ATCGCTGA	0.00583
CCCCACAC	-0.209
CCCCTTTC	-0.315
AAAGTGCA	0.0552
ACCCATAC	0.0331
ACTGCCCT	-0.142
AAAAAGGC	0.0954
CAAACGGA	-0.0075
ACACTGCG	0.0396
CTACCTCC	-0.317
AAGGAGGG	-0.0908

Sequence	PBM E-score
AGACACGC	0.0288
AATGGTAT	0.0418
GAGACGCC	0.0132
GTAACTCA	-0.0416
TCCAGACA	-0.0966
GACTTGTA	-0.0736
AGCCCAGG	-0.371
CCTCCTCA	-0.256
AACTGAGT	0.022
CATATGGC	0.0678
ACATGAAA	0.0572
CAGATGGC	0.0814
GGTCACTA	0.0296
GTTGGTGA	0.15
ATTTGAGG	0.0741
AATTACAT	0.318
CGGGACAA	-0.0706
ACTAATAT	0.302
AACGCAAC	0.212
ATCGGTCG	-0.0795
GGTCTACA	0.00658
AAAGCTCG	-0.0599
GTAAATGA	0.277
ATTCGGAC	0.108
GGCACCAA	0.207

Sequence	PBM E-score
GATGTAGA	0.205
AGCCAAAG	-0.114
CGTGCAGA	-0.0398
CCGTGTGA	0.241
TCTCGGAA	-0.00678
AATTAAGG	-0.0409
CATTCGAG	0.0766
AAATGTGC	0.0944
TGCGACCA	0.00536
GGCTCCGA	-0.0824
CAGGGAAC	0.00472
AAGAACCA	0.0993
AATACGCT	0.0276
AATTCAGT	0.0141
AAACCTAA	0.052
ACAGGAAG	-0.0175
GAAGAACA	0.131
GAAGATTA	0.124
AACGAATT	0.139
TCATCACA	0.252
ACACAGCT	-0.115
TAGGTGCA	-0.149
CCAACAAA	0.154
GTCGATAA	0.0842
AGATGGAC	0.18

Sequence	PBM E-score
AAAGAAGT	0.0945
ACTGAGCA	-0.0386
CAACTTGA	0.139
ATGGGGGA	-0.413
GACTCATC	-0.11
CAGGTGCC	-0.107
ACGCACGG	0.267
ATTCGGTA	0.164
CAACGCTA	-0.0868
CTTTGGGC	-0.163
CGCAACCA	-0.0895
ACGAATGG	0.0273
AATGCGCT	-0.0832
CATTGCAG	0.0762
CGACGGTA	-0.0315
AGTTGACC	-0.114
CCAGAGAC	-0.162
GATTTCTA	0.123
GCTAACCC	-0.223
CCCAGCAA	-0.101
CGAGAGGA	-0.00121
ATAGCTAG	-0.0952
GTCAAGGA	0.101
CTATAAAG	0.132
GATTTGCC	0.0926

Sequence	PBM E-score
TCAACTCA	0.113
GAGCCAAA	-0.116
AATCAGGT	0.233
AATCTCCC	-0.0703
AAGTTCAA	0.0723
AGCTACCA	-0.118
CTGTGGCC	-0.184
AGCTGTTC	-0.0706
AAACAGGT	0.0221
CAATTAAG	0.0737
GACCGTGA	0.0482
AAAGCAAA	0.186
CACCCATC	-0.0255
TAGGGACA	-0.166
GGAAGAAA	0.095
AAGAAGGG	-0.224
GCCAGGAC	-0.287
AGTTTGGA	0.0337
AAAATATA	0.262
